{"source": "patent US8962670B2", "about": "“Anti-cancer agents” (UWM Research Foundation, Inc., priority 2011, dated 2015)", "key": {"49 mer DNA duplex 292": {"tested_on": "49 mer DNA duplex 292", "test": "DNA ICL formation with/without H2O2, denaturing PAGE (Example 15)", "details": "for ICL formation: in the presence of H2O2"}, "Absorbance at 350 nm": {"test": "Absorbance at 350 nm", "type": "physicochemical", "details": "0.023 mM", "method": "DNA duplexes 6-13 were photo-irradiated at 350 nm using a Rayonet Photochemical Chamber Reactor (Model RPR-100). A wavelength of 350 nm was chosen because near-UV light (>300 nm) is not/slightly absorbed by most biological molecules and is compatible with living cells. Both compounds have absorbance at 350 nm (A=0.08 for 0.023 mM 53a and A=0.19 for 0.023 mM 53b. Furthermore, the nitroimidazole derivatives can be excited by 350 nm to form a radical anion transition state."}}, "data": [{"smiles": "CC1(C)OB(c2ccc(-c3ccc(B4OC(C)(C)C(C)(C)O4)c(C[N+](C)(C)C)c3)cc2C[N+](C)(C)C)OC1(C)C", "note": "[Compound 47, 3,3′-Di(trimethyl)-[4,4′-di(4,4,5,5-tetramethyl-[1,3,2]dioxaborolan-2-yl)-biphenyl]-ammonium bromide]", "values": [{"measurement": "cross-linking yield", "setting": "49 mer DNA duplex 292; 10 μM compound + 5 μM H2O2", "result": 0, "unit": "%"}, {"measurement": "cross-linking yield", "setting": "49 mer DNA duplex 292; 100 μM compound + 50 μM H2O2", "result": 0, "unit": "%"}, {"measurement": "cross-linking yield", "setting": "49 mer DNA duplex 292; 2 mM compound + 1 mM H2O2", "result": 0, "unit": "%"}, {"measurement": "ICL formation", "setting": "49 mer DNA duplex 292", "result": "no ICL was observed"}]}, {"smiles": "CC1(C)OB(c2cc(C[N+](C)(C)C)c(B3OC(C)(C)C(C)(C)O3)cc2C[N+](C)(C)C)OC1(C)C", "note": "[Compound 48, 1,4-Di-trimethyl-[2,5-di(4′,4′,5′,5′-tetramethyl-[1′,3′,2′]dioxaborolan-2′-yl)-benzyl]-ammonium bromide]", "values": [{"measurement": "cross-linking yield", "setting": "49 mer DNA duplex 292; 10 μM compound + 5 μM H2O2", "result": 2, "unit": "%"}, {"measurement": "cross-linking yield", "setting": "49 mer DNA duplex 292; 100 μM compound + 50 μM H2O2", "result": 8, "unit": "%"}, {"measurement": "cross-linking yield", "setting": "49 mer DNA duplex 292; 2 mM compound + 1 mM H2O2", "result": 24, "unit": "%"}, {"measurement": "ICL formation", "setting": "49 mer DNA duplex 292", "result": "efficiently induce the ICL formation"}]}, {"smiles": "O=c1[nH]c(=O)n([C@H]2C[C@H](O)[C@@H](CO)O2)cc1Cn1cnc([N+](=O)[O-])c1", "note": "[Compound 53a, 5-(4-nitro-1H-imidazol-1-yl)methyl-2′-deoxythymidine]", "values": [{"measurement": "absorbance at 350 nm (A)", "setting": "Absorbance at 350 nm", "result": 0.08}]}]}
